Experiment [1] concerns the target T1, RUFY3.1-FLAG (human) (UniProt Q7L099).
T1 sequence: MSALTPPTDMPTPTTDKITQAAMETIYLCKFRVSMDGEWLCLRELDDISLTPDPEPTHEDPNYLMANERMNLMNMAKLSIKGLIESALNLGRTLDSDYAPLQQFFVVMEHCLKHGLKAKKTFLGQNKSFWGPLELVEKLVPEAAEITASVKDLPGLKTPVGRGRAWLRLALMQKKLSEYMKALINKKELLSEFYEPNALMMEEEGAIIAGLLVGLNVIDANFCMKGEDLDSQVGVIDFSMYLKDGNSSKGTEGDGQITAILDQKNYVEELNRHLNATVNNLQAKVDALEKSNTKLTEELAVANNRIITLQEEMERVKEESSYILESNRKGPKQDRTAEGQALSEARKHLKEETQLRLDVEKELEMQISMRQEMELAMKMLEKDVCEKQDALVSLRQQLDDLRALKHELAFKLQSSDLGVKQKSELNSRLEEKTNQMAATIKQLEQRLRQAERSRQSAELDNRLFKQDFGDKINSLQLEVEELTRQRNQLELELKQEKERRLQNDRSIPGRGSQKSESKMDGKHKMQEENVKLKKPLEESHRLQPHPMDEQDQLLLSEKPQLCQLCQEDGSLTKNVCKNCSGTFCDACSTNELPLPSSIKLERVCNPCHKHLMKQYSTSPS
The experiment can be described thus: co-IP; lysates of HEK293T cells transfected with FLAG-tagged proteins, anti-FLAG magnetic agarose overnight at 4 °C (25 mM Tris-HCl pH 7.4, 0.15 M NaCl, 1 mM EDTA, 1% NP-40, 5% glycerol); immunoblot for endogenous ARL8A and ARL8B.

Amino acid sequences for entries named in this document (tags omitted). A change or cut given only in a name is not applied to a line headed by its entry.
UniProt Q96T51: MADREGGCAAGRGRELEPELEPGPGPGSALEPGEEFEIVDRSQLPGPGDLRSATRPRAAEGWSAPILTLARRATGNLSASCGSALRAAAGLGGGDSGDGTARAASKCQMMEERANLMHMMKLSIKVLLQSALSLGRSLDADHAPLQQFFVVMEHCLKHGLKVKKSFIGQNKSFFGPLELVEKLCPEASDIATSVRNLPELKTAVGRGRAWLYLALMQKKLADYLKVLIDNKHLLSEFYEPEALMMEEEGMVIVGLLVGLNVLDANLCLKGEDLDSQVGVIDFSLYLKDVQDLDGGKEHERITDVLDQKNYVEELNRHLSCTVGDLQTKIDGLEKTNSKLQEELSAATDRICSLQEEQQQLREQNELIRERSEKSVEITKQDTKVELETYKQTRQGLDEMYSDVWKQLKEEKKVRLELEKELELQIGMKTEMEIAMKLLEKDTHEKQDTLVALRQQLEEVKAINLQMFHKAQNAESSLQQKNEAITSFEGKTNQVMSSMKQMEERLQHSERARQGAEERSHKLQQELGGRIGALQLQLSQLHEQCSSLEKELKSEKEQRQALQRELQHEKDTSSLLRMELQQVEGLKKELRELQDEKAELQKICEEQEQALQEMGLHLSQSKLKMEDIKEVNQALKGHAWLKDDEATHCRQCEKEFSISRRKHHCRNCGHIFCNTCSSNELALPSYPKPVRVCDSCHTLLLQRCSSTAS
UniProt Q9NVJ2: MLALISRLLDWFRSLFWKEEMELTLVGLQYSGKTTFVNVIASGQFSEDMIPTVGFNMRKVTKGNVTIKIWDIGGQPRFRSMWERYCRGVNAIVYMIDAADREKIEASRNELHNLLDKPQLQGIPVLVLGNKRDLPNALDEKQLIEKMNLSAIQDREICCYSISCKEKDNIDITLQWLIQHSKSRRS
UniProt P51149: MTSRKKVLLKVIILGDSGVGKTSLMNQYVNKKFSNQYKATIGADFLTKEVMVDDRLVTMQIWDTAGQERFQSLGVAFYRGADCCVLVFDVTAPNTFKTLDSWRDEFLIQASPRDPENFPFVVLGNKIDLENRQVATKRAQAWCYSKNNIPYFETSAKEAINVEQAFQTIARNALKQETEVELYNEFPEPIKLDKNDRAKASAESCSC
UniProt Q9Y6G9: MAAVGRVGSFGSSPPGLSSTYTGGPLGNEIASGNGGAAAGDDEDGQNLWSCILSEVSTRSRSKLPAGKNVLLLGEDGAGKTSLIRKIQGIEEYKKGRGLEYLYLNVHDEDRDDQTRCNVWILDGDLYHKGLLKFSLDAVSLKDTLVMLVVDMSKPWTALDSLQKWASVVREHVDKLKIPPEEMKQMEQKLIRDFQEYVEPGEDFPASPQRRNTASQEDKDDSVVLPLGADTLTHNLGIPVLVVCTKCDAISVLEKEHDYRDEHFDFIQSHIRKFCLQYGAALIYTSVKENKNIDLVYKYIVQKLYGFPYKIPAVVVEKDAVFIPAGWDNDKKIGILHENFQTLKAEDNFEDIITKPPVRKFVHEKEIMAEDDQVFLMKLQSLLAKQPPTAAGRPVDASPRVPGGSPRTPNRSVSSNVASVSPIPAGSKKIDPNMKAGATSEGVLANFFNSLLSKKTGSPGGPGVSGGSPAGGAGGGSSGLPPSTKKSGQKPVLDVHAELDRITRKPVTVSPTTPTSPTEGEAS

The target in experiment [2] is T2, RUFY4-FLAG (human) (UniProt Q6ZNE9).
T2 sequence: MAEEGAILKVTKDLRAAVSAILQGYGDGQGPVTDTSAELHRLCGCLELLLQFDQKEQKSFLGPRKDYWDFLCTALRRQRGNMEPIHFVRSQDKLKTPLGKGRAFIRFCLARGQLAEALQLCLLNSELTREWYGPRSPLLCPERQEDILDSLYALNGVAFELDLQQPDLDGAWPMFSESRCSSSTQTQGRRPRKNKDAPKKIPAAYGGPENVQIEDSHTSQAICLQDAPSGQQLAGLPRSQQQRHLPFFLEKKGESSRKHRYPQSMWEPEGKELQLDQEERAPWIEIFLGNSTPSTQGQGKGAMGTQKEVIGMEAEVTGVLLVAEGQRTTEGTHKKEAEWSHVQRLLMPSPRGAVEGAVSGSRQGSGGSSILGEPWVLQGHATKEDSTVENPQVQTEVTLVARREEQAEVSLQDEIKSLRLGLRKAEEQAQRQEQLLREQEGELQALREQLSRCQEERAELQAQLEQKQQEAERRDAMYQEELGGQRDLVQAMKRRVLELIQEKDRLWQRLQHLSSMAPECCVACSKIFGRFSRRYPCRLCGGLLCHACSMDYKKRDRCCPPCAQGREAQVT
Described as above.

Experiment [3] addresses RUFY1-FLAG (human) (UniProt Q96T51). The experiment is described as above.
The target of experiment [4] is GST-ARL8B-Q75L (UniProt Q9NVJ2). Description: pull-down; GST-ARL8B-Q75L (GTPγS) or GST-ARL8B-T34N (GDP) on glutathione-Sepharose incubated 1 h at 4 °C with lysates of transfected HEK293T cells (25 mM Tris-HCl pH 7.4, 150 mM NaCl, 1% NP-40, 8 mM MgCl2, 500 uM nucleotide); immunoblot for FLAG or GFP; only the target purified. For orientation: A western blot detects proteins with antibodies after separation by electrophoresis.

The target in experiment [5] is GST-ARL8B-T34N (UniProt Q9NVJ2). Described as above.
Experiment [6] deals with RAB7A-T22N-BirA*-HA-MAO (UniProt P51149). Description: mitochondrial re-localisation assay (confocal microscopy); HeLa cells co-expressing GFP-tagged proteins with a mitochondrially targeted GTPase (MTS-BioID2-ARL8B or RAB7A-BirA*-HA-MAO); interaction inferred from re-localisation of the GFP protein to mitochondria; cells scored by eye.
The target of experiment [7] is GST-DLIC1 (UniProt Q9Y6G9). Description: pull-down; 20 ug purified GST-DLIC1 or GST-DLIC1-CT on glutathione-Sepharose incubated with 5 ug purified 6His-StrepII-sfGFP-RUFY3 for 1 h at 4 °C; immunoblot for GFP and GST; both purified.

The results in this text go back to article PMC8938451.

These are yes or no findings as the source states them, for the method shown. For some assays here: Binding seen in cells or lysates may run through a third protein. Some entries that bind do so weakly or less than the wild type. For some assays here: Tags and fused reporters may be left off the sequences shown.

B1: ARL8A, endogenous (protein, UniProt Q96BM9 1-186)
chain: MIALFNKLLDWFKALFWKEEMELTLVGLQYSGKTTFVNVIASGQFNEDMIPTVGFNMRKITKGNVTIKLWDIGGQPRFRSMWERYCRGVSAIVYMVDAADQEKIEASKNELHNLLDKPQLQGIPVLVLGNKRDLPGALDEKELIEKMNLSAIQDREICCYSISCKEKDNIDITLQWLIQHSKSRRS
Regarding B1, the binding entry was “binds” in experiment [1], “binds” in experiment [2] and “no binding” in experiment [3].

B2: RUFY4-FLAG (protein, UniProt Q6ZNE9-2 1-571)
chain: T2 sequence
Take B2: the binding result was “binds” in experiment [4] and “no binding” in experiment [5].

B3: RUFY4-GFP (protein, UniProt Q6ZNE9-2 1-571)
chain: T2 sequence
For B3, in experiment [6], the binding entry is recorded as “no binding”.

B4: 6His-StrepII-sfGFP-RUFY3 (protein, UniProt Q7L099-3 1-620)
chain: T1 sequence
Take B4: in experiment [7], the binding entry is reported as “binds”.

B5: RUFY3.1-GFP (protein, UniProt Q7L099-3 1-620)
chain: T1 sequence
In the case of B5, in experiment [6], the binding result is “no binding”.
